We go through 7 substances from the supplement of paper PMC8728848.

Holding throughout (assay): glycan array binding signal (z-score within array); higher = stronger binding
Holding throughout (conditions): glycan notation: IUPAC condensed, linker removed

The test system of assay [1] is Fuc(a1-2)[GalNAc(a1-3)]Gal(b1-4)GlcNAc(b1-2)Man(a1-3)[Fuc(a1-2)[GalNAc(a1-3)]Gal(b1-4)GlcNAc(b1-2)Man(a1-6)]Man(b1-4)GlcNAc(b1-4)[Fuc(a1-6)]GlcNAc. The method in brief:
(§1)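 Glycan array data were curated from 3228 arrays in the Consortium for Functional Glycomics database and kept only where the protein sequence was available. Glycan names were converted to IUPAC-condensed notation, and columns mapping to the same glycan were averaged. The binding signal is a within-array Z-score, averaged across arrays of the same protein sequence at different concentrations or buffers and across linkers. Negative Z-scores can be read as non-binding.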

The test system of assay [2] is Fuc(a1-2)[GalNAc(a1-3)]Gal(b1-4)GlcNAc(b1-3)Gal(b1-4)GlcNAc. In short, it runs like this:
as §1

Assay [3] deals with Fuc(a1-2)[GalNAc(a1-3)]Gal(b1-4)GlcNAc(b1-3)Gal(b1-4)GlcNAc(b1-3)Gal(b1-4)GlcNAc. In short, it runs like this:
as §1

Assay [4] concerns Fuc(a1-2)[GalNAc(a1-3)]Gal(b1-4)GlcNAc(b1-3)[Fuc(a1-2)[GalNAc(a1-3)]Gal(b1-4)GlcNAc(b1-6)]GalNAc. In short, it runs like this: as §1
For assay [5], the system named is Fuc(a1-2)[GalNAc(a1-3)]Gal(b1-4)GlcNAc. The method in brief: as §1
The subject of assay [6] is Fuc(a1-2)[GalNAc(a1-3)]Gal(b1-4)[Fuc(a1-3)]GlcNAc(b1-3)GalNAc. In short, it runs like this: as §1

Only a selection was taken, and the strongest signals are over-represented in it overall.

Turning to “Thrombomodulin Extracellular (Homo sapiens) (chain not printed)”, the “glycan array binding signal (z-score)” value in assay [1] is 0.354; in assay [2], 0.284.

For the substance FGF2 (chain not printed), the “glycan array binding signal (z-score)” value in assay [3] is -0.741.

Consider “M-Ficolin A256V (Homo sapiens) (chain not printed)”, for which the “glycan array binding signal (z-score)” value in assay [2] was -0.177.

Take “Meso764 (Homo sapiens) (chain not printed)”: in assay [4], the “glycan array binding signal (z-score)” value is -0.388.

As for VWF (Homo sapiens) (chain not printed), in assay [5], the “glycan array binding signal (z-score)” value is 5.5.

As to “Galectin-8 C-terminal CRD (Homo sapiens) (chain not printed)”, in assay [5], the “glycan array binding signal (z-score)” value amounted to 5.18.

As for “NCAM1 (Homo sapiens) (chain not printed)”, the “glycan array binding signal (z-score)” value in assay [6] stood at 8.55.
